# Laboratory results as given in the supplement of paper PMC3334620.
# The full ranking holds about 33,000 sequences; the median of “E-score (-0.5 to 0.5)” is about -0.016, and the highest 2% start at about 0.32. This is one part of the list.
# Molecular target: T1, Stp1 (UniProt B3LFK1)
# T1 sequence: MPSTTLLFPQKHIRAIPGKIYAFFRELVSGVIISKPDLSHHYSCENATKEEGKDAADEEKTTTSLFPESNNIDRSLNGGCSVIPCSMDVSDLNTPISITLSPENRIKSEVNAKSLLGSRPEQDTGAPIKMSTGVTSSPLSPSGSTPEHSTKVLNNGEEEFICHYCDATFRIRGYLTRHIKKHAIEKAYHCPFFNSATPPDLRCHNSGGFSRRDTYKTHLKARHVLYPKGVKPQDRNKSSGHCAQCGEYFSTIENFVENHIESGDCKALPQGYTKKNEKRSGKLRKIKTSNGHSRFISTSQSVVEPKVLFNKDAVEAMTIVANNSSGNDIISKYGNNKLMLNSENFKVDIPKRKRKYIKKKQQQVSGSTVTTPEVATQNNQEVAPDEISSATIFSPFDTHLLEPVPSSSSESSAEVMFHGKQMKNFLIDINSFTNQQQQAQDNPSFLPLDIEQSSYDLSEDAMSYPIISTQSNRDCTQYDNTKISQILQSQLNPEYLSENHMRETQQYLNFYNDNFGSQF
# Assay: PBM E-score (8-mer binding enrichment) (E-score (-0.5 to 0.5)); higher = stronger / more preferred TF binding; most listed sequences are background and not binding sites
# Settings: protein concentration: 200 nM; construct: GST-full length
# How it was run: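 Each ungapped eight-base word and its reverse complement, pooled, received an E-score from the Universal PBM Analysis Suite. Underlying scans, normalised with masliner, recorded fluorescent anti-GST bound to GST-tagged yeast transcription factors. These were applied at about 100-200 nM to universal all-10-mer Agilent arrays double-stranded by primer extension.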
row,Sequence,PBM E-score
1,AAAACTGA,-0.0972
2,CTAACGCA,0.0301
3,GAGTCCAC,-0.128
4,ATTGCGGA,0.00404
5,CCGCAAGG,0.172
6,CACACGAG,0.0133
7,ATTTTGTA,0.202
8,AGATTATA,0.00022
9,AAACACGA,-0.0347
10,ATTCTCCG,0.0629
11,CAGCTTCA,-0.13
12,TCAGCGAA,-0.0708
13,ACTCGAAT,-0.0603
14,CGTAGCGA,0.0452
15,TTATCAAA,0.224
16,AAGAAGCA,-0.102
17,GCGCTACC,-0.113
18,ATTTAATA,0.241
19,AAATGGAA,-0.0376
20,GCGAGGCA,0.439
21,TATGAACA,0.0517
22,AAGACGCT,-0.13

row,Sequence,PBM E-score
1,CACAAAAG,0.212
2,CAGGGCTC,-0.191
3,CAGCCACC,-0.095
4,GTGAGGTA,-0.0324
5,CTCAGACC,-0.228
6,AGTAATAT,0.117
7,CTAATCGC,0.0179
8,CGAGAAAA,-0.077
9,GACAATAC,0.213
10,TAAGATGA,0.0182
11,ATCCGTAG,0.112
12,CTGCAATC,0.0171
13,CTACAGTA,0.0384
14,CTGTCAGA,-0.114
15,CCTCGACA,0.0231
16,AGCGTTAC,-0.126
17,GGAAATAC,-0.0887
18,AGTCCGAC,-0.182
19,AGAACGGA,0.102
20,ATGGAGAA,0.0747
21,CACCGTAA,0.00961
22,ATATAGAC,0.0693

row,Sequence,PBM E-score
1,ACGCAACG,0.236
2,CCCCAGAC,-0.31
3,CATCTCTC,-0.0636
4,AAAACTCG,0.0696
5,TCACTGAA,-0.068
6,CCTGCGCC,0.295
7,CCCAGGTC,-0.339
8,ATTCTTAC,0.0192
9,ATTAGAGG,-0.0638
10,AGTCGTTC,-0.115
11,AGATGGAT,-0.148
12,CACCTCGA,0.0971
13,ACTCAAAA,0.18
14,AGAACTCA,-0.113
15,ATAAAGGC,0.00184
16,ACCCGTAC,0.0646
17,AGGCGGGC,-0.0735
18,ACATGTCA,0.0247
19,AATTAGAA,-0.0118
20,CGGGTCTA,-0.00926
21,AGTAGTGG,0.0284
22,ACTGACCC,-0.246

row,Sequence,PBM E-score
1,GCCCCGGA,-0.142
2,GCAACCCA,-0.0504
3,ACACGCAA,0.0159
4,TAGGATCA,-0.146
5,AACGCGAG,-0.0531
6,AAACACTT,-0.0497
7,ATGTCAAA,0.0322
8,GACACTTA,-0.00223
9,GCTGCAGA,0.036
10,GTTATTAA,0.168
11,AACTGCAG,-0.00144
12,GGCGCACC,-0.0445
13,CCAAACCA,-0.0602
14,AGACGTAT,0.0489
15,AGTGATCA,-0.0602
16,CAGACACC,-0.135
17,CAAAGTGA,0.0308
18,CAACCCCA,-0.0817
19,AGTTTGAT,0.0118
20,CTAGTCCA,-0.103
